Experimental data published in the supplement of paper PMC4967469.

Tests used:
Assay in all cases: Viability of human cancer cell lines after 72 h of drug (GDSC screen)
FTI-277 = compound: COC(=O)[C@H](CCSC)NC(=O)c1ccc(NC[C@@H](N)CS)cc1-c1ccccc1 [FTI-277]; conditions: top dose 1.024 µM; top dose inferred
Procedure: (§1)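 Human cancer cell lines in 384-well plates, medium with 10% serum, drug for 72 h over a 256-fold dose range (nine 2-fold or five 4-fold steps up to the top dose). Adherent lines were fixed and stained with the nucleic acid dye Syto60, suspension lines read with resazurin; signal relative to control wells, capped at 0 and 100%. One two-parameter sigmoid per drug and line, fitted in a mixed model over all curves with the slope shared within a line.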

JNJ-26854165 = compound: c1ccc2c(CCNc3ccc(Nc4ccncc4)cc3)c[nH]c2c1 [JNJ-26854165]; conditions: top dose 10 µM
Procedure: as §1

JQ1 = compound: Cc1sc2c(c1C)C(c1ccc(Cl)cc1)=N[C@@H](CC(=O)OC(C)(C)C)c1nnc(C)n1-2 [JQ1]
Procedure: as §1

OSI-906 = compound: C[C@]1(O)C[C@@H](c2nc(-c3ccc4ccc(-c5ccccc5)nc4c3)c3c(N)nccn32)C1 [OSI-906]; conditions: top dose 2.56 µM; top dose inferred
Procedure: as §1

YM155 = compound: COCC[n+]1c2c(n(Cc3cnccn3)c1C)C(=O)c1ccccc1C2=O [YM155]; conditions: top dose 5.12 µM
Procedure: as §1

Belinostat = compound: O=C(/C=C/c1cccc(S(=O)(=O)Nc2ccccc2)c1)NO [Belinostat]; conditions: top dose 20 µM; top dose inferred
Procedure: as §1

SB-715992 = compound: Cc1ccc(C(=O)N(CCCN)[C@@H](c2nc3cc(Cl)ccc3c(=O)n2Cc2ccccc2)C(C)C)cc1 [SB-715992]; conditions: top dose 0.128 µM; top dose inferred
Procedure: as §1

NSC-207895 = compound: CN1CCN(c2ccc([N+](=O)[O-])c3no[n+]([O-])c23)CC1 [NSC-207895]; conditions: top dose 20 µM; top dose inferred
Procedure: as §1

[1] = top dose 1 µM, screen: GDSC drug entry 1218, top dose inferred
[2] = top dose 2.56 µM, screen: GDSC drug entry 163

| Cell Line | AUC (FTI-277) | pIC50 (FTI-277) | AUC (JNJ-26854165) | pIC50 (JNJ-26854165) | AUC (JQ1; [1]) | pIC50 (JQ1; [1]) | AUC (JQ1; [2]) | pIC50 (JQ1; [2]) | AUC (OSI-906) | pIC50 (OSI-906) | AUC (YM155) | pIC50 (YM155) | AUC (Belinostat) | pIC50 (Belinostat) | AUC (SB-715992) | pIC50 (SB-715992) | AUC (NSC-207895) | pIC50 (NSC-207895) |
| --- | --- | --- | --- | --- | --- | --- | --- | --- | --- | --- | --- | --- | --- | --- | --- | --- | --- | --- |
| COR-L105 (lung adenocarcinoma, adherent) | 0.98 | < 5.99 | 0.893 | < 5.00 | 0.978 | < 6.00 | 0.412 | 7.06 | 0.95 | < 5.59 | 0.117 | > 7.70 | 0.425 | 6.13 | 0.902 | < 6.89 | 0.947 | < 4.70 |
| COLO-792 (melanoma, adherent) | 0.982 | < 5.99 | 0.849 | 5.14 | 0.987 | < 6.00 | 0.887 | < 5.59 | 0.877 | 5.60 | 0.542 | 6.38 | 0.738 | 5.23 | 0.652 | 7.68 | 0.987 | < 4.70 |
| J82 (bladder, adherent) | 0.948 | < 5.99 | 0.916 | < 5.00 | 0.948 | < 6.00 | 0.671 | 6.32 | 0.951 | < 5.59 | 0.617 | 6.17 | 0.707 | 5.32 | 0.977 | < 6.89 | 0.976 | < 4.70 |
| NCI-H1734 (lung adenocarcinoma, adherent) | 0.956 | < 5.99 | 0.849 | 5.06 |  |  | 0.861 | 5.59 | 0.893 | < 5.59 | 0.073 | > 7.70 | 0.439 | 6.08 | 0.927 | < 6.89 | 0.978 | < 4.70 |
| H2803 (mesothelioma, adherent) | 0.96 | < 5.99 | 0.869 | < 5.00 | 0.983 | < 6.00 | 0.748 | 6.03 | 0.889 | < 5.59 | 0.248 | 7.28 | 0.459 | 6.02 | 0.974 | < 6.89 | 0.985 | < 4.70 |
| SW837 (large intestine, adherent) | 0.974 | < 5.99 | 0.958 | < 5.00 | 0.978 | < 6.00 | 0.853 | < 5.59 | 0.779 | 5.85 | 0.194 | 7.56 | 0.305 | 6.53 | 0.815 | 7.00 | 0.887 | < 4.70 |
| NCI-H1573 (lung adenocarcinoma, adherent) | 0.99 | < 5.99 | 0.951 | < 5.00 | 0.988 | < 6.00 | 0.988 | < 5.59 | 0.99 | < 5.59 | 0.49 | 6.52 | 0.564 | 5.73 | 0.954 | < 6.89 | 0.975 | < 4.70 |

pIC50: −log10 of the molar value. Lines with a small IC50 respond at low doses; a limit (>, <) means that the fit lies beyond the doses tested. The AUC spans the tested range (256-fold, ending at the top dose) of the same fit; it is 1 without any effect and falls as sensitivity rises. For some of these results: The top dose, if marked as inferred, was derived from the fitted curves, not read from the paper. For some of these results: An entry number marks a drug with two screens in the source, which often give different values.
